Measurements published in ChEMBL document CHEMBL4888484, “Replenishing the malaria drug discovery pipeline: Screening and hit evaluation of the MMV Hit Generation Library 1 (HGL1) against asexual blood stage Plasmodium falciparum ,using a nano luciferase reporter read-out” (2022).
Out of some 150,000 compounds screened, about 540 (0.36%) showed an effect of 50% or more. The list shows a part of the results.

Each molecule was assayed on Plasmodium falciparum (assay: Primary screen in NF54 nanoGlo assay, in single point, at 2uM, 72h; a lower Z score goes with more inhibition). Conditions: timepoint 72 hour.
Format: functional, Erythrocyte

Row | Structure (SMILES) | % Inhibition | Z score
1 | CCCCN(CCCNC(=O)[C@H]1CCCN(c2ncnc3onc(C)c23)C1)Cc1ccccc1 | 5% | -0.69
2 | CC(C)c1nccn1C1CN(C(=O)NCCc2ccccc2)C1 | -19% | 2.35
3 | COC1(C)CC(N(C)C(=O)c2c[nH]c(C(C)C)n2)C1(C)C (stereo not drawn) | -11% | 1.46
4 | COc1cc(COCC2CCN(C(=O)Nc3c(F)cccc3F)CC2)cc(OC)c1 | -11% | 1.25
5 | CC(NC(=O)CC(N)c1ccccc1)c1ccncc1 (stereo not drawn) | -13% | 2.29
6 | C[C@H]1CNCCN1C(=O)CCc1ccncc1 | -15% | 1.9
7 | COc1cccc(CNC(=O)c2cccc(NC(=O)c3nnc(CC(C)C)s3)c2)c1 | -8% | 1.11
8 | O=C(CN1C(=O)c2ccccc2C1=O)N1CCN(c2nc3cccnc3o2)CC1 | -12% | 1.17
9 | NC(=O)CO[C@H]1CCC12CCN(C(=O)c1cc3ccccc3[nH]1)CC2 | -6% | 0.72
10 | CN(C)C(=O)c1ccc(F)c(Br)c1 | -3% | 0.58
11 | COc1cc(C)n(CCNC(=O)c2cccn3c(=O)cc(C)nc23)c(=O)c1 | -7% | 1.37
12 | O=S(=O)(Cc1ccon1)N1CC2C3CCC(C3)C2C1 (stereo not drawn) | 5% | -0.73
13 | CN(C(=O)C1CCCC1)c1cccc(C#N)c1 | -8% | 0.78
14 | CCOC(=O)N1CCC(NC(=O)c2coc(NC(=O)Cc3c(C)noc3C)n2)CC1 | 18% | -2.53
15 | O=C(NCc1ccc(F)cc1)c1nnc(C(=O)Nc2ccc(F)cc2)s1 | -13% | 1.21
16 | CN(C(=O)CN1C(=O)c2ccccc2C1=O)C1CCCC1 | -3% | 0.48
17 | O=C(CN1C(=O)CCC1=O)N1CC(c2nc(-c3ccsc3)no2)C1 | 3% | -0.39
18 | CCc1ccc(C(=O)N[C@H]2C[C@H]3OCC[C@@H]23)[nH]1 | 4% | -0.51
19 | C#CCN(C)CCCNCc1ccoc1C | 3% | -0.52
20 | O=C(Nc1cnc(C2CC2)nc1)N(Cc1ccccc1)CC(F)F | 0% | -0.06
21 | CC1(CNC(=O)C2CCCCCC2)CCNCC1 | 4% | -0.39

Row | Structure (SMILES) | % Inhibition | Z score
22 | CCCc1ccc(C(=O)N2c3cccc([C@@]4(C)CC(C)(C)Nc5ccccc54)c3C(C)=CC2(C)C)cc1 | -9% | 1.68
23 | CN(C)Cc1ccc(NCc2cnc(C3CC3)o2)cc1Br | -4% | 0.72
24 | CO[C@@H]1CN[C@@H](C(=O)NCCc2nc(-c3ccccc3)c(C)s2)C1 | -1% | 0.19
25 | O=C(NC[C@H]1CCC[C@@H]1O)c1cccc(Nc2nccs2)c1 | -19% | 2.93
26 | CCCC(CCC)C(=O)Nc1c(C)cc(C)cc1C | 0% | -0.04
27 | Cc1c(NC(=O)NCc2ccccc2CC(F)(F)F)nnn1C | -8% | 1.22
28 | O=C(Nc1cc(-n2cncn2)ncn1)c1ccc(S(=O)(=O)N2CCCC2)cc1 | -13% | 2.19
29 | CC(C)(C)n1nnc(CNC2CCN(S(=O)(=O)NCC(F)(F)F)CC2)n1 | 5% | -0.56
30 | O=C(O)c1cc(-c2cc(F)cc(F)c2)cc(S(=O)(=O)N2CCOCC2)c1 | -3% | 0.44
31 | CC(=O)N1CC(C(=O)N[C@@](C)(C(N)=O)c2cccc(Cl)c2)C1 | 0% | -0.02
32 | CN(CC1(CO)CC1)C(=O)CCc1cncs1 | 11% | -1.16
33 | Cc1cccc2c1ncn1nc(-c3ccccc3)c(=O)nc21 | -15% | 2.08
34 | CC(C)[C@H](NS(=O)(=O)N1CCCC1)c1nccn1C | -7% | 1.19
35 | CNCC(=O)N1CC(=O)N(c2cccc(Cl)c2)C[C@@H]1Cc1ccccc1 | 6% | -0.57
36 | COc1cc(Cc2noc(Cc3cnccc3C)n2)ccc1S(C)(=O)=O | -2% | 0.42
37 | Cc1occc1C(=O)NCC[C@H]1CCCN(C(=O)OC(C)(C)C)C1 | 9% | -0.95
38 | CC1(C)C(=O)Nc2cc(C(=O)N[C@H]3CCOC3(C)C)ccc21 | -18% | 1.91
39 | Cc1cc(CC(=O)NCc2ccc3c(c2)C[C@H](C)O3)on1 | -5% | 0.7
40 | O=C(CCc1ccc2c(c1)CCO2)NCc1ccco1 | -9% | 1.26
41 | C=C(CNC(=O)N1CCC(CN2CCNC2=O)CC1)c1ccccc1 | -1% | 0.21
42 | O=C(NC[C@H](O)c1ccccc1)c1cnsn1 | 2% | -0.31

Row | Structure (SMILES) | % Inhibition | Z score
43 | Cc1nc(C(C)C)sc1[C@H](C)N(C)CC(=O)NC(=O)Nc1ccccc1 | 31% | -3.5
44 | COc1ccc(-c2noc(Cn3nc4ccc(-c5ccccc5)nn4c3=O)n2)cc1OC | -11% | 1.45
45 | Cc1cc(C)nc(O[C@H]2CCN(C(=O)c3ccno3)C2)n1 | -1% | 0.15
46 | COc1cccc(NC(=O)Cc2nnc(-c3ccsc3)o2)c1 | -7% | 0.68
47 | CCOc1ccccc1NC(=O)Cn1c(N2CCc3ccccc3C2)nc(C)cc1=O | -22% | 1.92
48 | CCCCS(=O)(=O)NC[C@H](O)c1cccc(F)c1 | -7% | 0.89
49 | CC(C)[C@H](CCO)NC(=O)C(C)(C)N1CCCCC1 | -13% | 1.78
50 | O=C1CN(C(=O)c2cccs2)c2ccccc2N1 | 3% | -0.53
51 | N#Cc1cccc(S(=O)(=O)N2CCOC[C@H]2c2noc(-c3ccccc3)n2)c1 | 2% | -0.17
52 | CCCC(CCC)C(=O)N1CCC[C@H](Oc2nc(C3CC3)nc3c2CCOCC3)C1 | -7% | 0.64
53 | O=C(Nc1ccc(Cl)cc1)c1nnc(C(=O)N2CCC[C@H](C(=O)N3CCCCCC3)C2)s1 | -28% | 2.49
54 | O=C(NCCc1ccccc1)C1CCC(Cn2cnnn2)CC1 (stereo not drawn) | -2% | 0.29
55 | COCc1nc(CNC(=O)N2CC3(CCCC3)C2)c(-c2ccccc2)s1 | 18% | -2.32
56 | COc1ccc(CN(C)[C@H]2CCc3nn(C)c(=O)n3CC2)c(Cl)c1OC | 32% | -4.3
57 | CCCc1cc(C(=O)Nc2cc(C)on2)cs1 | -4% | 0.52
58 | O=C(NCc1ccc(N2CCCS2(=O)=O)cc1)c1cc2sccc2[nH]1 | -13% | 2.05
59 | CC[C@@H](C(=O)NCc1cnc(C)cn1)n1cccn1 | 20% | -2.58
60 | CN(CCCN1CCOCC1)c1cc([C@H]2C[C@@H](O)C2)ncn1 | -4% | 0.65
61 | Cc1nc(-c2cc(S(=O)(=O)NCC(=O)N3CCN(c4cccc(Cl)c4)CC3)c(C)s2)no1 | -10% | 0.96
62 | CCc1nc(N2CCN(CC=C(C)C)[C@H](C(=O)O)C2)no1 | -7% | 0.74
63 | C[C@H](NCc1ccccc1)c1ccc2c(c1)C(C)(C)C(=O)N2 | -13% | 1.2

Row | Structure (SMILES) | % Inhibition | Z score
64 | COc1cccc(CN(Cc2ccc(C(O)(c3ccccc3)c3ccccc3)o2)CC(C)C)c1OC | 4% | -0.5
65 | CCc1ccc(OC[C@H]2Cn3c(nc4c(=O)n(C)c(=O)n(C)c43)O2)cc1 | -15% | 1.43
66 | Cn1cc(Br)cc1C(=O)NCCn1cnnc1C1CC1 | -6% | 0.59
67 | Cn1ccc([C@H]2CCCN(CCC(C)(C)CC(=O)O)C2)n1 | 1% | -0.11
68 | COc1ccc([C@H](C)NCc2c3c(nn2C)CCCC3)c(OC)c1 | -5% | 0.64
69 | C[C@@H](C1CC1)N(C)CC(=O)N1CCCCCC1 | -7% | 1.34
70 | CC(C)(C)CNC(=O)NCCCN1C(=O)CCC1=O | 11% | -1.37
71 | CC(C)C(=O)N1CCC2(CC1)OC[C@@H](C(=O)NCc1ccc(F)cc1)N2C(=O)c1ccccc1 | -1% | 0.14
72 | CCCCCOCC(=O)Nc1ccc2oc(C(N)=O)nc2c1 | -13% | 1.55
73 | O=c1c2nnn(Cc3cccc(Cl)c3)c2ncn1Cc1nc(-c2ccccc2)no1 | 13% | -1.84
74 | CN1CCCN(C(=O)[C@H]2CC23CCN(Cc2cccc(Oc4ccccc4)c2)CC3)CC1 | 0% | -0.02
75 | O=C(NC1CCN(Cc2ccccc2)CC1)c1occc1-c1ccccc1 | -3% | 0.62
76 | COC[C@H](C)NC(=O)CS(=O)(=O)c1ccc(F)c(F)c1 | -10% | 1.65
77 | Cc1cc(C(=O)N2CCCC[C@H]2c2nc(=O)[nH][nH]2)nn1C(F)F | 36% | -0.89
78 | CC[C@H](NC1CCN(c2nc(C)nc3sccc23)CC1)c1nc(C)c[nH]1 | -5% | 0.79
79 | CNC(=O)CNC(=O)[C@H]1O[C@@H]2OC(C)(C)O[C@@H]2[C@H]2OC(C)(C)O[C@H]21 | 2% | -0.29
80 | O=S1(=O)CC[C@H](S(=O)(=O)Nc2c(F)c(F)c(Cl)c(F)c2F)C1 | -12% | 1.55
81 | COc1ccc(CNC(=O)[C@H]2O[C@H](CCN3CCN(C)CC3)CC[C@@H]2O)cc1 | 3% | -0.57
82 | COCCN1C(=O)c2cccn2C[C@@H]1CNC(=O)NC1CCCCC1 | -2% | 0.36
83 | CN1CCCN(C(=O)c2cn(CCNC(=O)CCC3CCCC3)nn2)CC1 | -9% | 1.22
84 | CCN(CC)C(=O)Nc1ccc(-c2ccc3c(c2)NC(=O)CO3)cc1 | -18% | 2.45
